Assay results taken from the supplement of paper PMC8728848.
The list shows a part of the results.

What was measured:
Test in all cases: glycan array binding signal (z-score within array); higher = stronger binding
Settings in all cases: glycan notation: IUPAC condensed, linker removed
[1] = molecular target: Fuc(a1-2)Gal(b1-4)[Fuc(a1-3)]GlcNAc
Outline: (§1)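 The binding signal is a Z-score computed within each array and averaged over linkers. Arrays of the same protein sequence at different concentrations or buffers were also averaged together. Data originate from 3228 arrays in the Consortium for Functional Glycomics database, kept only where the protein sequence was available.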

[2] = molecular target: Fuc(a1-2)Gal(b1-4)[Fuc(a1-3)]GlcNAc(b1-2)Man(a1-3)[Fuc(a1-2)Gal(b1-4)[Fuc(a1-3)]GlcNAc(b1-2)Man(a1-6)]Man(b1-4)GlcNAc(b1-4)[Fuc(a1-6)]GlcNAc
Outline: as §1

[3] = molecular target: Fuc(a1-2)Gal(b1-4)[Fuc(a1-3)]GlcNAc(b1-2)[Fuc(a1-2)Gal(b1-4)[Fuc(a1-3)]GlcNAc(b1-4)]Man(a1-3)[Fuc(a1-2)Gal(b1-4)[Fuc(a1-3)]GlcNAc(b1-2)Man(a1-6)]Man(b1-4)GlcNAc(b1-4)GlcNAc
Outline: as §1

[4] = molecular target: Fuc(a1-2)Gal(b1-4)[Fuc(a1-3)]GlcNAc(b1-3)Gal(b1-4)[Fuc(a1-3)]GlcNAc
Outline: as §1

[5] = molecular target: Fuc(a1-2)Gal(b1-4)[Fuc(a1-3)]GlcNAc(b1-3)Gal(b1-4)[Fuc(a1-3)]GlcNAc(b1-3)Gal(b1-4)[Fuc(a1-3)]GlcNAc
Outline: as §1

[6] = molecular target: Fuc(a1-2)Gal(b1-4)[Fuc(a1-3)]GlcNAc(b1-3)GalNAc
Outline: as §1

[7] = molecular target: Fuc(a1-2)Gal(b1-4)[Fuc(a1-3)]GlcNAc(b1-3)[Neu5Ac(a2-6)Gal(b1-4)GlcNAc(b1-6)]Gal(b1-4)Glc
Outline: as §1

[8] = molecular target: Fuc(a1-2)Gal3S(b1-4)GlcNAc
Outline: as §1

[9] = molecular target: Fuc(a1-2)Gal6S(b1-3)GlcNAc
Outline: as §1

[10] = molecular target: Fuc(a1-2)Gal6S(b1-3)GlcNAc6S
Outline: as §1

[11] = molecular target: Fuc(a1-2)Gal6S(b1-4)Glc
Outline: as §1

[12] = molecular target: Fuc(a1-2)Gal6S(b1-4)Glc6S
Outline: as §1

[13] = molecular target: Fuc(a1-2)[Gal(a1-3)]Gal
Outline: as §1

[14] = molecular target: Fuc(a1-2)[Gal(a1-3)]Gal(b1-3)GalNAc
Outline: as §1

[15] = molecular target: Fuc(a1-2)[Gal(a1-3)]Gal(b1-3)GalNAc(b1-3)Gal(a1-4)Gal(b1-4)Glc
Outline: as §1

[16] = molecular target: Fuc(a1-2)[Gal(a1-3)]Gal(b1-3)GlcNAc
Outline: as §1

[17] = molecular target: Fuc(a1-2)[Gal(a1-3)]Gal(b1-3)GlcNAc(b1-2)Man(a1-3)[Fuc(a1-2)[Gal(a1-3)]Gal(b1-3)GlcNAc(b1-2)Man(a1-6)]Man(b1-4)GlcNAc(b1-4)GlcNAc
Outline: as §1

[18] = molecular target: Fuc(a1-2)[Gal(a1-3)]Gal(b1-3)GlcNAc(b1-2)Man(a1-3)[Fuc(a1-2)[Gal(a1-3)]Gal(b1-3)GlcNAc(b1-2)Man(a1-6)]Man(b1-4)GlcNAc(b1-4)[Fuc(a1-6)]GlcNAc
Outline: as §1

[19] = molecular target: Fuc(a1-2)[Gal(a1-3)]Gal(b1-3)GlcNAc(b1-3)GalNAc
Outline: as §1

[20] = molecular target: Fuc(a1-2)[Gal(a1-3)]Gal(b1-3)GlcNAc(b1-6)GalNAc
Outline: as §1

[21] = molecular target: Fuc(a1-2)[Gal(a1-3)]Gal(b1-4)Glc
Outline: as §1

[22] = molecular target: Fuc(a1-2)[Gal(a1-3)]Gal(b1-4)GlcNAc
Outline: as §1

[23] = molecular target: Fuc(a1-2)[Gal(a1-3)]Gal(b1-4)GlcNAc(b1-2)Man
Outline: as §1

[24] = molecular target: Fuc(a1-2)[Gal(a1-3)]Gal(b1-4)GlcNAc(b1-2)Man(a1-3)[Fuc(a1-2)[Gal(a1-3)]Gal(b1-4)GlcNAc(b1-2)Man(a1-6)]Man(b1-4)GlcNAc(b1-4)GlcNAc
Outline: as §1

[25] = molecular target: Fuc(a1-2)[Gal(a1-3)]Gal(b1-4)GlcNAc(b1-2)Man(a1-3)[Fuc(a1-2)[Gal(a1-3)]Gal(b1-4)GlcNAc(b1-2)Man(a1-6)]Man(b1-4)GlcNAc(b1-4)[Fuc(a1-6)]GlcNAc
Outline: as §1

[26] = molecular target: Fuc(a1-2)[Gal(a1-3)]Gal(b1-4)GlcNAc(b1-3)GalNAc
Outline: as §1

[27] = molecular target: Fuc(a1-2)[Gal(a1-3)]Gal(b1-4)GlcNAc(b1-3)[Fuc(a1-2)[Gal(a1-3)]Gal(b1-4)GlcNAc(b1-6)]GalNAc
Outline: as §1

[28] = molecular target: Fuc(a1-2)[Gal(a1-3)]Gal(b1-4)GlcNAc(b1-6)GalNAc
Outline: as §1

[29] = molecular target: Fuc(a1-2)[Gal(a1-3)]Gal(b1-4)[Fuc(a1-3)]Glc
Outline: as §1

[30] = molecular target: Fuc(a1-2)[Gal(a1-3)]Gal(b1-4)[Fuc(a1-3)]GlcNAc
Outline: as §1

[31] = molecular target: Fuc(a1-2)[Gal(a1-3)]Gal(b1-4)[Fuc(a1-3)]GlcNAc(b1-3)GalNAc
Outline: as §1

[32] = molecular target: Fuc(a1-2)[Gal(a1-4)]Gal(b1-4)GlcNAc
Outline: as §1

[33] = molecular target: Fuc(a1-2)[GalNAc(a1-3)]Gal
Outline: as §1

[34] = molecular target: Fuc(a1-2)[GalNAc(a1-3)]Gal(b1-3)GalNAc(a1-3)[Fuc(a1-2)]Gal(b1-4)GlcNAc
Outline: as §1

[35] = molecular target: Fuc(a1-2)[GalNAc(a1-3)]Gal(b1-3)GalNAc(b1-3)Gal(a1-4)Gal(b1-4)Glc
Outline: as §1

[36] = molecular target: Fuc(a1-2)[GalNAc(a1-3)]Gal(b1-3)GlcNAc
Outline: as §1

[37] = molecular target: Fuc(a1-2)[GalNAc(a1-3)]Gal(b1-3)GlcNAc(b1-2)Man(a1-3)[Fuc(a1-2)[GalNAc(a1-3)]Gal(b1-3)GlcNAc(b1-2)Man(a1-6)]Man(b1-4)GlcNAc(b1-4)GlcNAc
Outline: as §1

[38] = molecular target: Fuc(a1-2)[GalNAc(a1-3)]Gal(b1-3)GlcNAc(b1-2)Man(a1-3)[Fuc(a1-2)[GalNAc(a1-3)]Gal(b1-3)GlcNAc(b1-2)Man(a1-6)]Man(b1-4)GlcNAc(b1-4)[Fuc(a1-6)]GlcNAc
Outline: as §1

B1: DC-ASGPR Long (Homo sapiens) (protein)
chain: MTRTYENFQYLENKVKVQGFKNGPLPLQSLLQRLRSGPCHLLLSLGLGLLLLVIICVVGFQNSKFQRDLVTLRTDFSNFTSNTVAEIQALTSQGSSLEETIASLKAEVEGFKQERQAGVSELQEHTTQKAHLGHCPHCPSVCVPVHSEMLLRVQQLVQDLKKLTCQVATLNNNASTEGTCCPVNWVEHQDSCYWFSHSGMSWAEAEKYCQLKNAHLVVINSREEQNFVQKYLGSAYTWMGLSDPEGAWKWVDGTDYATGFQNWKPGQPDDWQGHGLGGGEDCAHFHPDGGWNDDVCQRPYHWVCEAGLGQTSQESH
**Q.** How did the “glycan array binding signal (z-score)” value [1] turn out when B1 was run?
**A.** -0.176

**Q.** What about the “glycan array binding signal (z-score)” value [2] of the same binder?
**A.** -0.421

**Q.** And the “glycan array binding signal (z-score)” value [3]?
**A.** -0.111

**Q.** And the “glycan array binding signal (z-score)” value [4]?
**A.** -0.21

**Q.** And the “glycan array binding signal (z-score)” value [5]?
**A.** -0.405

**Q.** What about the “glycan array binding signal (z-score)” value [6] of the same binder?
**A.** -0.329

**Q.** What about the “glycan array binding signal (z-score)” value [7] of the same binder?
**A.** -0.447

**Q.** What about the “glycan array binding signal (z-score)” value [8] of the same binder?
**A.** 0.826

**Q.** And the “glycan array binding signal (z-score)” value [9]?
**A.** -0.354

**Q.** And the “glycan array binding signal (z-score)” value [10]?
**A.** 0.044

**Q.** And the “glycan array binding signal (z-score)” value [11]?
**A.** -0.637

**Q.** And the “glycan array binding signal (z-score)” value [12]?
**A.** 0.241

**Q.** And the “glycan array binding signal (z-score)” value [13]?
**A.** -0.434

**Q.** And the “glycan array binding signal (z-score)” value [14]?
**A.** -0.207

**Q.** What about the “glycan array binding signal (z-score)” value [15] of the same binder?
**A.** -0.254

**Q.** What about the “glycan array binding signal (z-score)” value [16] of the same binder?
**A.** 0.022

**Q.** What about the “glycan array binding signal (z-score)” value [17] of the same binder?
**A.** -0.007

**Q.** What about the “glycan array binding signal (z-score)” value [18] of the same binder?
**A.** -0.379

**Q.** And the “glycan array binding signal (z-score)” value [19]?
**A.** 0.428

**Q.** What about the “glycan array binding signal (z-score)” value [20] of the same binder?
**A.** 2.09

**Q.** And the “glycan array binding signal (z-score)” value [21]?
**A.** -0.379

**Q.** And the “glycan array binding signal (z-score)” value [22]?
**A.** -0.263

**Q.** And the “glycan array binding signal (z-score)” value [23]?
**A.** -0.043

**Q.** And the “glycan array binding signal (z-score)” value [24]?
**A.** 0.114

**Q.** And the “glycan array binding signal (z-score)” value [25]?
**A.** 0.061

**Q.** What about the “glycan array binding signal (z-score)” value [26] of the same binder?
**A.** -0.382

**Q.** And the “glycan array binding signal (z-score)” value [27]?
**A.** -0.397

**Q.** And the “glycan array binding signal (z-score)” value [28]?
**A.** -0.147

**Q.** What about the “glycan array binding signal (z-score)” value [29] of the same binder?
**A.** -0.153

**Q.** What about the “glycan array binding signal (z-score)” value [30] of the same binder?
**A.** -0.212

**Q.** What about the “glycan array binding signal (z-score)” value [31] of the same binder?
**A.** -0.285

**Q.** What about the “glycan array binding signal (z-score)” value [32] of the same binder?
**A.** -0.387

**Q.** What about the “glycan array binding signal (z-score)” value [33] of the same binder?
**A.** 0.334

**Q.** What about the “glycan array binding signal (z-score)” value [34] of the same binder?
**A.** -0.395

**Q.** What about the “glycan array binding signal (z-score)” value [35] of the same binder?
**A.** -0.348

**Q.** What about the “glycan array binding signal (z-score)” value [36] of the same binder?
**A.** -0.192

**Q.** What about the “glycan array binding signal (z-score)” value [37] of the same binder?
**A.** 1.58

**Q.** What about the “glycan array binding signal (z-score)” value [38] of the same binder?
**A.** 0.218
